In all, about 350,000 compounds went through this assay and about 31,000 (8.9%) were called active. The shares of active, inactive and inconclusive entries below differ from those in the screen. Calls come from the whole dose curve; as a rule, active = well fitted inhibition curve with a large enough effect; inconclusive = small, poorly fitted or top-dose-only effect; inactive = no such curve, though single readings can be large or run the other way. A potency beside an inconclusive call is a rough fit, not a confirmed value.
Biological target: Histone-lysine N-methyltransferase EHMT2 (Homo sapiens) (UniProt Q96KQ7)
Assay: qHTS Assay for Inhibitors of Histone Lysine Methyltransferase G9a; note: nearly all actives have a fitted effect of over 75% in size
Details: G9a H3K9 monomethylation, AlphaScreen, 2 h; activity, negative = inhibition: at 59 µM (top of the series) unless noted
Summary of the method: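 Signal arises when biotinylated H3K9 peptide, once monomethylated, bridges streptavidin donor and antibody-captured acceptor beads. Enzyme at 20 nM was preincubated 15 min with test compounds; peptide 500 nM and SAM 20 uM then reacted for 2 h.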
% is set by controls: 0 for no effect and ±100 for the full control effect; potency is the fitted concentration of half-maximal effect; tags give direction and shape of the fitted curve.

Sequence of UniProt Q96KQ7 (Q96KQ7 whole entry, looked up): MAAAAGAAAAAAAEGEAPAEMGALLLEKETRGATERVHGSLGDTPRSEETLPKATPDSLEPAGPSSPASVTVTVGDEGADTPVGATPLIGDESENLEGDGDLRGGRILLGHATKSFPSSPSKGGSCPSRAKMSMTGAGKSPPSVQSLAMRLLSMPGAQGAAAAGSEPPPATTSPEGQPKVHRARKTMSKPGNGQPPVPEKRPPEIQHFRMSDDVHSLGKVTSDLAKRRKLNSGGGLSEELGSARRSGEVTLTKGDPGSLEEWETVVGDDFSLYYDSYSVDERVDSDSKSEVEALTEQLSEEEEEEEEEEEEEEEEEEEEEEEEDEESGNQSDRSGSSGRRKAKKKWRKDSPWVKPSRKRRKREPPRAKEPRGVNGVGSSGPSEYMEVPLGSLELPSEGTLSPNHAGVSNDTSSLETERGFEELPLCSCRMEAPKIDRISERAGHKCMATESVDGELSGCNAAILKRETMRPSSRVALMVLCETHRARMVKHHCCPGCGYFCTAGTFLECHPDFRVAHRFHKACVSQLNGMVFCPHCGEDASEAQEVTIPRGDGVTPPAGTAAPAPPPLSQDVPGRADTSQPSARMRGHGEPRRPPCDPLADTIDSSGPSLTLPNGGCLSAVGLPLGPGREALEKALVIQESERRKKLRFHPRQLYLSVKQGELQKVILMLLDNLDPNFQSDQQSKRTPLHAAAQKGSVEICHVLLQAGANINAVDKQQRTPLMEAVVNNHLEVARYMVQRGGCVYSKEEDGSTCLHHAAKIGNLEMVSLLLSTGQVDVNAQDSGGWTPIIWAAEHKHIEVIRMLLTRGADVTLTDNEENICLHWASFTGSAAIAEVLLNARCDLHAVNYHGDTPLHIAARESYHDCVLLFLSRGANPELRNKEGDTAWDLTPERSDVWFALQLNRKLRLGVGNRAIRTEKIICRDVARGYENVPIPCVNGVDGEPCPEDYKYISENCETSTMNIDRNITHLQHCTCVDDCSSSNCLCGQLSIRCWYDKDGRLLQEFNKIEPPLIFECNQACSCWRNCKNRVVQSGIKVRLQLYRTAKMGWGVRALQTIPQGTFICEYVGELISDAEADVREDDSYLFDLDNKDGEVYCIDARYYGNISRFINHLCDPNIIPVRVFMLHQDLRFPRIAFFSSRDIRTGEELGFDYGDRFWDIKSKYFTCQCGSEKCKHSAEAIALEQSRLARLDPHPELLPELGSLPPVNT

Question: For O=C(Nc1ccccc1)N1CCC(C(=O)N(Cc2ccco2)Cc2cccs2)CC1, which Potency is on record?
Answer: inconclusive: 3.55 µM [inhibitor, partial curve, poor fit]

Question: N#CCCN(Cc1cccnc1)S(=O)(=O)c1ccc2ccccc2c1 was tested. Which “activity, negative = inhibition” value did it give?
Answer: inactive: -0.0127%

Question: For CCc1ccc(NC(=S)NCC2CCCN2CC)cc1 (stereo not drawn), which Potency is on record?
Answer: inconclusive: 56.2 µM [inhibitor, partial curve, poor fit]

Question: COc1cc(CNc2ccc(N3CCCC3)cc2)ccc1OCc1ccccc1 was tested. Which Potency did it give?
Answer: inconclusive: 1.78 µM [inhibitor, full curve, poor fit]

Question: For Cc1ccc(O)c(NC(=O)c2cccc(NC(=O)c3ccco3)c2)c1, which Potency is on record?
Answer: inconclusive: 22.4 µM [inhibitor, single point]

Question: COc1ccc(CCNC(=O)C2=CCN(S(=O)(=O)c3ccc(F)cc3)CC2)cc1OC was tested. Which Potency did it give?
Answer: inconclusive: 89.1 µM [inhibitor, single point]

Question: For CCOC(=O)c1sc2cccc(F)c2c1S(=O)(=O)N1CCN(c2cccc(Cl)c2)CC1, which Potency is on record?
Answer: active: 8.91 µM

Question: With COc1cc(C(=S)N2CCCCC2)ccc1OCC(=O)Nc1ccccc1Cl as the compound, how does the Potency read?
Answer: inconclusive: 50.1 µM [inhibitor, partial curve]

Question: For O=C(c1cncc(Br)c1)N1CCN(c2ccc(N3CCOCC3)nn2)CC1, which Potency is on record?
Answer: inconclusive: 89.1 µM [inhibitor, single point]

Question: CC(=O)c1ccc(C(=O)N2CCc3c([nH]c4ccccc34)C2c2ccccn2)s1 (stereo not drawn) was tested. Which Potency did it give?
Answer: inconclusive: 56.2 µM [inhibitor, single point]

Question: For Nc1nc2c(s1)CCc1ccccc1-2, which Potency is on record?
Answer: active: 10 µM

Question: For S=C(NCc1ccc2c(c1)OCO2)NC1CCN(Cc2ccccc2)CC1, which Potency is on record?
Answer: inconclusive: 89.1 µM [inhibitor, single point]

Question: With CCC(NC(=O)Nc1ncccc1C)(C(F)(F)F)C(F)(F)F as the compound, how does the Potency read?
Answer: inconclusive: 89.1 µM [inhibitor, single point]

Question: With CSc1nc(-c2ccccc2)nc(C(Cl)Cl)n1 as the compound, how does the Potency read?
Answer: inconclusive: 3.16 µM [inhibitor, partial curve, poor fit]

Question: COc1cccc(C(=O)N2c3cc(C)ccc3C(C)(c3ccccc3)CC2(C)C)c1 (stereo not drawn) was tested. Which “activity, negative = inhibition” value did it give?
Answer: inactive: -4.02%

Question: For Cc1ccc(N2C(=O)CC(n3nc(C)cc3C)C2=O)cc1 (stereo not drawn), which Potency is on record?
Answer: inconclusive: 89.1 µM [inhibitor, single point]

Question: For COC(=O)c1ccc(CSc2nnc(Nc3ccc(C)cc3)s2)o1, which Potency is on record?
Answer: inconclusive: 3.16 µM [inhibitor, partial curve, poor fit]

Question: For CN1CCN(C(=O)/C(=C/c2ccc(N(C)C)cc2)NC(=O)c2ccccc2)CC1, which Potency is on record?
Answer: inconclusive: 79.4 µM [inhibitor, single point]

Source: PubChem BioAssay AID504332 (National Center for Advancing Translational Sciences (NCATS), 2011)
